Experimental data as given in the supplement of paper PMC3334620.
Whole data set: some 33,000 sequences, median “E-score (-0.5 to 0.5)” near -0.035, cut for the highest 2% near 0.34. This is one part of the list.

target: T1, Mot3 (UniProt P54785); assay: PBM E-score (8-mer binding enrichment) (E-score (-0.5 to 0.5)); higher = stronger / more preferred TF binding; most listed sequences are background and not binding sites; conditions: protein concentration: 200 nM; construct: GST-full length
T1 sequence: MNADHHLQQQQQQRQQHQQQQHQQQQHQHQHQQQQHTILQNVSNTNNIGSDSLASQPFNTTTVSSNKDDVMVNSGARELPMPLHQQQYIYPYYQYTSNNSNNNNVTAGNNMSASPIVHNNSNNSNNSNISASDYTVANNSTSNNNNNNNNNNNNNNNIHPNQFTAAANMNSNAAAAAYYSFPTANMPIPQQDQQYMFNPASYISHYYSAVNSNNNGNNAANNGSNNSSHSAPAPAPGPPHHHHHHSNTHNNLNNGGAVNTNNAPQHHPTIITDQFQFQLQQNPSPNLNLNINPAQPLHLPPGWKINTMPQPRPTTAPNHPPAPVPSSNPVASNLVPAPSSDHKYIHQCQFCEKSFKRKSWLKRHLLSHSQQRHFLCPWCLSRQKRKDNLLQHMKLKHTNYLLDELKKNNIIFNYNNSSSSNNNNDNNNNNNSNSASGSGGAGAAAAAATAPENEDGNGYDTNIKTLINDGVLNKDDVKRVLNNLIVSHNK
Method in brief: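 Full-length yeast transcription factors or their DNA-binding domains, GST-tagged and expressed with PURExpress, were applied at about 100-200 nM to universal all-10-mer Agilent arrays. These arrays had been made double-stranded by primer extension on fresh or once-stripped slides. Detection used fluorescent anti-GST, normalisation used masliner, and E-scores for ungapped eight-base words pooled with reverse complements came from the Universal PBM Analysis Suite.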

Sequence	PBM E-score
ACATATAT	0.262
TCCGATCA	-0.0505
GTCAGTGA	-0.233
ATTGGACG	0.00158
GTATATAA	0.175
AGAGAAAA	-0.0157
ACTTTGCC	0.116
AGTGACGG	-0.0886
AATCGGGC	0.0506
ACCTTAAT	0.138
CAATTCAA	-0.00242
CAAGCATG	0.109
CTAACGGC	-0.239
CATTCGCG	0.0789
CGACGGGC	-0.0997
AGATAAAG	-0.0787
ACAATCCA	0.128
AACTTAGC	0.0241
ATGACTCG	-0.049
ACACGAGC	0.2
ATTTAAAT	0.0438
GGATTGCC	0.0134
ACGGCGAC	-0.249
AATTTAGG	0.173
AGTGTGAA	0.141

Sequence	PBM E-score
AGCGTCCG	-0.116
GAATGTTA	0.166
ATGCATCG	0.0336
AAAGAGAC	-0.166
ATCGTAGC	-0.107
GACAACTA	0.0523
AAGCATAA	-0.00346
ACTCCGGC	-0.151
GATGCTAA	-0.122
AGACATAC	0.157
AGAGGCAT	-0.0714
CCAGCAAC	0.0114
CGGATTTA	-0.0766
CCGGTCCG	-0.411
CCCGTCTC	-0.276
TCCGAGGA	-0.211
ATGAGATA	0.0104
GGACTTAC	0.0386
AGCTAGAC	-0.275
ACCAGCAA	-0.127
CTACCCTC	-0.254
ACGAGCCT	0.21
GCCCTCGA	-0.14
CGTAGGCC	-0.0263
AGCGTATC	-0.103

Sequence	PBM E-score
GATTGGCA	-0.253
GTCATGTA	0.356
GCGATCAA	-0.0482
TCAATCCA	-0.0625
GCACCCAA	-0.21
CTAAGCAG	-0.107
ATGGGTTG	0.00733
AGTCCTAG	-0.164
CCTCCGTA	-0.112
GAGTATGC	0.0591
CTACTTAA	0.0699
CATTCAAG	-0.222
AAGGACCG	-0.0164
AGCGTCTC	-0.207
CAGCGTAG	-0.0256
CATGTCGG	0.222
GGCTCACA	-0.00891
GACACGTA	0.26
CCTCCTGA	-0.0543
CTCCGGTC	-0.193
GAATGGCC	-0.243
CAGTCGTC	-0.255
CATCGAGC	-0.193
CCGGGCAG	-0.279
CAGCCGCG	-0.0863

Sequence	PBM E-score
ATACAGTA	0.196
CGTGGTAC	0.0792
TCCATACA	0.0064
AAAAATGG	0.127
ACTTGACC	-0.0482
ACCGTGAC	-0.017
CTATAGCA	0.119
AGGAGAGC	-0.154
AAGCGTTG	0.0319
AGAAGACA	0.0253
CGGAGCCC	-0.284
TATTTCCA	0.02
CTTGTCCA	-0.0526
CAACAATC	0.215
ACCTAGAT	0.0985
CGTCCGTA	-0.13
CCAATACC	-0.0608
GCACCGGA	-0.0824
CGAGTGGA	-0.289
CTGTTTTA	0.0859
CAACATGC	0.345
AAAAGGTC	-0.161
TAGGCCGA	-0.356
CTTATTTA	0.116
TGAGAGAA	-0.0743

Sequence	PBM E-score
AGACGGTC	-0.169
CACGTACG	0.0433
GTCACAGA	-0.0442
ATAGCGAA	0.113
CCCTCTAA	-0.134
CAACTCGC	0.00205
CAATAACG	0.0921
CCGTAGAC	-0.134
ACCTTCCT	0.0149
AACCCCTC	-0.159
CGCTCGGA	-0.133
CAGTTATA	0.0381
TAGTACCA	-0.0882
TCTGTGAA	0.0158
CCCGATAA	-0.0141
CCAAGTGG	-0.079
GTATTGCA	0.0602
TATATTCA	0.0956
AGATTCAC	0.0263
AACCAGCC	-0.0888
CGGCGCGC	-0.183
ATCCAAAC	-0.0446
AGTTCCAC	-0.0307
TATATGGA	-0.0383
TACGCTAA	0.153

Sequence	PBM E-score
ACGTGTTC	0.221
CATCAGCG	-0.0175
CAAAAAAA	0.154
AATTTCAG	0.0442
AATAACCG	-0.0969
ATTTACAA	0.363
TCCGTCAA	-0.051
ATAACTTG	0.168
AAAACTTA	0.144
AGCCAAGG	-0.106
CCTTGCCC	0.119
CAGGAACA	0.449
CTAGACAA	0.101
CTAGTCGC	-0.071
AGGGGGGC	-0.307
GACGTGAA	0.0472
AACTAGCC	-0.112
GAAGCGGC	-0.369
ACAGCAAG	-0.0169
ACGGCCCC	-0.406
AATCCTTC	-0.105
CACACCAC	-0.0852
TACGTTCA	0.103
CAACGTGA	-0.065
ATGATGCG	-0.0292

Sequence	PBM E-score
CCCGAGTC	-0.234
CCGCGCCG	-0.15
ATTGATCG	0.0333
ATGGCAGA	-0.0408
AAACTGCG	-0.13
ATGCGCGG	-0.232
GTTTGTTA	0.222
TGTTGTAA	0.307
AGACTAGA	-0.245
TACATATA	0.317
TCACAGGA	0.15
CCATCTTC	-0.218
GCGGAACC	-0.106
ACGCTACA	0.0843
GGTCCGAA	0.0123
ACACCAAC	-0.0101
CGCCCGAC	-0.159
AAATGGTT	0.0419
AATATAAC	0.119
ATGGGCCA	0.00822
CAGTCCAA	-0.132
ACACGAGA	0.263
